Experimental data published in PubChem BioAssay AID662 (National Center for Advancing Translational Sciences (NCATS), 2007).
The whole screen tested about 71,000 compounds, of which about 1,800 (2.5%) were called active. Inconclusive results, whose numbers are uncertain, are shown with a selection of clear calls. Calls follow the shape of the dose curve; as a rule, active = well fitted activation curve with a large enough effect in the signal ratio, with a control signal flat (not every such curve was filed as active); inconclusive = small, poorly fitted or top-dose-only effect, or effect the other way, or a change in a side signal; inactive = flat fitted curve, though single readings scatter; the % refers to the signal ratio. A potency beside an inconclusive call is a rough fit, not a confirmed value.

Test: Cell signaling CRE-BLA (Fsk stim); as to activity change, negative = inhibition: % of control where 0% means no effect
Settings: CHO CRE-bla reporter (cAMP response element driving beta-lactamase), forskolin EC10, beta-lactamase ratio; activity change, negative = inhibition: at 38.2 µM (top of the series) unless noted
Procedure, shortened: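 Forskolin analogue NKH 477 at EC10 stimulated CRE-driven beta-lactamase in CHO cells alongside compound dilution series. Beta-lactamase was measured with CCF4, excitation 405 nm, emission ratio 460/530 nm.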
Potency is read from the fitted curve at half-maximal effect; tags tell the direction and shape of the fitted curve.

SMILES	activity change, negative = inhibition	Potency
CC(C)CCn1c(SCC(=O)c2ccccc2)nc2c1c(=O)[nH]c(=O)n2C	inconclusive: 12.3%	–
O=C(Nc1ccc2c(c1)Cc1ccccc1-2)[C@@H]1[C@H](C(=O)O)[C@]2(Cl)C(Cl)=C(Cl)[C@@]1(Cl)C2(Cl)Cl	inactive: -7.14% [at 7.6 µM]	–
CC12C=CC3(CN(Cc4ccccc4)C(=O)C3C1C(=O)NC1CC1)O2 (centres undefined)	inactive: -15.4%	–
Cc1ccc(C)c(S(=O)(=O)C(C#N)c2nc3ccccc3nc2N2CCCC2)c1 (centres undefined)	–	inconclusive: 15.8 µM [rising, partial curve]
Cn1nc(-c2ccc(Cl)cc2)c2cc(C(=O)NC3CC3)sc21	–	inconclusive: 2.51 µM [rising, full curve]
COc1ccc(NC(=O)N2CCCC3(CCN(C(=O)c4c(C)noc4C)CC3)C2)cc1	inactive: 7.68%	–
CCSc1nc2ccccc2n1CC(=O)N1CCCCC1	inactive: 10.6%	–
Cc1cccc(OCCCCCn2ccnc2)c1C	inconclusive: 19%	–
Cc1c(-c2nc(N)nc(Nc3ccccc3)n2)oc2ccccc12	–	inconclusive: 20 µM [falling, single point]
c1ccc2[nH]c(CSc3ncnc4c3oc3ccccc34)nc2c1	–	inconclusive: 0.1 µM [rising, full curve]
Cc1cc(C(=O)COC(=O)c2csc3c2CCCC3)c(C)n1C	inconclusive: 17.9%	–
CN(C)C(=O)N1CCN(C(=O)c2ccccc2Sc2ccccc2C#N)CC1	inconclusive: -6.71%	–
N#Cc1ccccc1-c1ccc2ncnc(NC3CC3)c2c1	–	inconclusive: 5.01 µM [rising, partial curve]
NCCC[C@@H](CC(=O)N[C@@H]1CCCC[C@H]1C(=O)N[C@H](CC(=O)N[C@@H](CCC(=O)O)CC(=O)O)Cc1ccccc1)NC(=O)C[C@H](Cc1ccccc1)NC(=O)[C@@H]1CCCC[C@H]1N	inactive: -16.4%	–
CCN(CC)S(=O)(=O)c1ccc(-c2nnc(SCC(=O)Nc3nc(C)cs3)o2)cc1	inconclusive: -5.26%	–
CCOc1cc(C)nc(NCCc2ccc(OC)c(OC)c2)n1	–	inconclusive: 12.6 µM [rising, partial curve]
CCOc1ccc(OCC)c2sc(C)nc12	–	inconclusive: 12.6 µM [rising, partial curve]
C/C(=C\c1ccco1)C1C(C#N)=C(N)Oc2n[nH]c(-c3ccccc3)c21 (centres undefined)	inconclusive: -21.8% [cytotoxic]	–
Cn1c(=O)c2c(SCC(=O)NCc3ccco3)nc(CC(C)(C)C)nc2n(C)c1=O	–	inconclusive: 10 µM [rising, partial curve]
CC1=C(C(=O)OCc2ccccc2)C(c2ccccc2OC(F)F)NC(=O)N1 (centres undefined)	–	inconclusive: 0.02 µM [rising, single point]

SMILES	activity change, negative = inhibition	Potency
C=CC(=O)OCC(CO)(COC(=O)C=C)COC(=O)C=C	inconclusive: -3.43%	–
O=c1c2[nH]c3ccccc3c2ncn1Cc1ccccn1	–	active: 10 µM
CC(C)(C)OC(=O)NCCc1nnc(S(=O)(=O)Cc2ccc(Cl)cc2Cl)o1	–	inconclusive: 3.98 µM [falling, single point]
COc1ccc(C(=O)N2CCC3(CC2)CCN(c2cccc(-c4ccccc4)c2)CC3)cc1	inactive: -11.7%	–
COc1ccc(-c2nc3cnc(N4CCNCC4)nc3n(C3CC3)c2=O)cc1	–	inconclusive: 2 µM [rising, full curve]
CC(C)Cn1c(SCC(=O)c2ccc(Cl)s2)nnc1-c1ccco1	inactive: -5.35%	–
O=C(c1ccco1)[C@@H]1[C@@H]2C(=O)N(c3ccc(Br)cc3)C(=O)[C@@H]2C2c3ccccc3C=CN21 (some centres undefined)	–	inconclusive: 12.6 µM [falling, single point]
CCCn1c(C)nc2c(NCCCN(C)C)nc(C)nc21	inactive: 1.9%	–
Cc1cccc2cc(CN(CC3CCCO3)C(=O)c3cccnc3)c3nnnn3c12 (centres undefined)	–	active: 3.98 µM
CCOc1nc(-c2ccccc2)ccc1-c1noc(COC)n1	inactive: 20.3%	–
CCNc1ncc2nc(-c3cc(F)cc(F)c3)c(=O)n(CCOC)c2n1	–	inconclusive: 2 µM [rising, full curve]
CC1(C)CC(=O)C2=C(C1)NC(=O)CC2c1ccccc1F (centres undefined)	inconclusive: -5.19%	–
O=C(NCc1nc2ccccc2[nH]1)c1cc2ccccc2oc1=O	–	inconclusive: 5.01 µM [rising, partial curve]
O=C1Nc2c(Br)cc(Br)cc2C1(O)N1CCOCC1 (centres undefined)	inconclusive: 21.8%	–
N#Cc1nc(N2CCCC2)nc(N2CCCC2)n1	–	inconclusive: 12.6 µM [rising, partial curve]
COc1ccc(-c2nc3cnc(OC)nc3n(CCc3ccccc3)c2=O)cc1	–	inconclusive: 12.6 µM [rising, partial curve]
COCCN1C(=O)c2ccccc2C(C(=O)NCCCN2CCCC2=O)C1c1c[nH]c2ccccc12 (centres undefined)	inactive: 11.3%	–
CCOC(=O)c1oc2ccccc2c1CN1CCOCC1	–	inconclusive: 12.6 µM [rising, single point]
CCOC(=O)NCc1ccc(CNC(=O)OCC)cc1	inconclusive: -3.38% [at 7.6 µM]	–
